Data from PubChem BioAssay AID504332 (National Center for Advancing Translational Sciences (NCATS), 2011).
Among all 350,000 compounds or so, about 31,000 (8.9%) were called active. Inconclusive results, whose numbers are uncertain, are shown with a selection of clear calls. Calls come from the whole dose curve; as a rule, active = well fitted inhibition curve with a large enough effect; inconclusive = small, poorly fitted or top-dose-only effect; inactive = no such curve, though single readings can be large or run the other way. Potencies beside an inconclusive call are fits to weak or partial responses and may not hold up.

target: Histone-lysine N-methyltransferase EHMT2 (Homo sapiens) (UniProt Q96KQ7); test: qHTS Assay for Inhibitors of Histone Lysine Methyltransferase G9a; details: G9a H3K9 monomethylation, AlphaScreen, 2 h; activity, negative = inhibition: at 59 µM (top of the series) unless noted; note: nearly all actives have a fitted effect of over 75% in size
Sequence of UniProt Q96KQ7 (Q96KQ7 whole entry, looked up): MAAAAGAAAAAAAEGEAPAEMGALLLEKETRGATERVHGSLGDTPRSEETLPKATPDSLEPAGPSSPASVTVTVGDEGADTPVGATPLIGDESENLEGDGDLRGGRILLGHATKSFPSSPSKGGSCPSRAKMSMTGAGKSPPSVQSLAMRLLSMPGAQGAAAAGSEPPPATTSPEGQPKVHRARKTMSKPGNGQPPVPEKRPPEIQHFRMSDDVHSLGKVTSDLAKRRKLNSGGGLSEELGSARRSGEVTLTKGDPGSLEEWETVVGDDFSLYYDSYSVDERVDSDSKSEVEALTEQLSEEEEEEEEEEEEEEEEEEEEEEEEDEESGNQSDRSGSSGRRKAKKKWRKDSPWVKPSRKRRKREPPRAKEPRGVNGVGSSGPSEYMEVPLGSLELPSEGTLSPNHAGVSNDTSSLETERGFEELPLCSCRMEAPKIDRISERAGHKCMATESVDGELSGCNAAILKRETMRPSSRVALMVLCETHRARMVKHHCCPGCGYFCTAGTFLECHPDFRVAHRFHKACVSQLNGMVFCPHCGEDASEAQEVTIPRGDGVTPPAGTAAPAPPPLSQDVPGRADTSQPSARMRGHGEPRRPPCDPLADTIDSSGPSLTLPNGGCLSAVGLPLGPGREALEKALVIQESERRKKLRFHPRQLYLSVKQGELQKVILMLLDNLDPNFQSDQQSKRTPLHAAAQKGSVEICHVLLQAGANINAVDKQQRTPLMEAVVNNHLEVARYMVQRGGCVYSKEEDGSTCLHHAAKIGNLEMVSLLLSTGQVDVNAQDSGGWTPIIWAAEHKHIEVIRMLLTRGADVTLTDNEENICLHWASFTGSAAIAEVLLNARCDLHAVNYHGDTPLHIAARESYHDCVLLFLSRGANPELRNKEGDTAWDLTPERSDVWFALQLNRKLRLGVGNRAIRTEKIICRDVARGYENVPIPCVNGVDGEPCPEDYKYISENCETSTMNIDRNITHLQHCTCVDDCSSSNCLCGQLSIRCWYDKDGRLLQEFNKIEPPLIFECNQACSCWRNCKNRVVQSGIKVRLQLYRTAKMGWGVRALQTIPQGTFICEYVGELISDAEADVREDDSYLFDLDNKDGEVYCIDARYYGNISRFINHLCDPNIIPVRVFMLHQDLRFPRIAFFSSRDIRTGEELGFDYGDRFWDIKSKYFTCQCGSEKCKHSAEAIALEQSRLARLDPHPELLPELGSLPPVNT
Procedure, shortened: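 Using a bead-based AlphaScreen, monomethylated H3K9 product from 2 h room-temperature reactions (G9a 20 nM, peptide 500 nM, SAM 20 uM) was detected with 0.5 ug/mL rabbit anti-H3K9me1 antibody.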
% is set by controls: 0 for no effect and ±100 for the full control effect; potency is the fitted concentration of half-maximal effect; tags give direction and shape of the fitted curve.

Structure (SMILES)	Potency	activity, negative = inhibition
CCOc1c(OC(C)=O)ccc(/C=C/c2ccc3cccc(OC)c3n2)c1[N+](=O)[O-]	inconclusive: 20 µM [inhibitor, single point]	–
COC(=O)N/N=C(C)\C=C\c1ccco1	inconclusive: 28.2 µM [inhibitor, single point]	–
O=C(O)c1ccc(Cl)c(S(=O)(=O)NC(Cc2c[nH]c3ccccc23)C(=O)O)c1 (configuration not stated)	inconclusive: 56.2 µM [inhibitor, single point]	–
CCOc1ccccc1NC1=C(Cl)C(=O)N(c2ccc(OC)cc2)C1=O	inconclusive: 3.16 µM [inhibitor, full curve, poor fit]	–
CCC(Sc1nncn1C)C(=O)Nc1nnc(-c2ccc(Cl)cc2)s1 (configuration not stated)	inconclusive: 50.1 µM [inhibitor, partial curve]	–
O=c1oc2cc(Oc3c([N+](=O)[O-])cc(C(F)(F)F)cc3[N+](=O)[O-])ccc2c2c1CCCC2	inconclusive: 56.2 µM [inhibitor, single point]	–
O=C(NC1CCCCC1)c1ccc(CSc2nc3cccnc3n2Cc2cccc(F)c2)cc1	inactive	–
O=S(=O)(NCC(c1ccc2c(c1)OCO2)N1CCN(c2ccccc2)CC1)c1ccccc1 (configuration not stated)	inconclusive: 22.4 µM [inhibitor, partial curve]	–
CCCCOc1ccccc1C1NC(=O)NC(C)=C1C(=O)OCc1ccco1 (configuration not stated)	active: 22.4 µM	–
COC(=O)c1scc(-c2ccc(C)cc2)c1S(=O)(=O)N1CCN(c2ccc(F)cc2)CC1	inconclusive: 28.2 µM [inhibitor, single point]	–
CCCN1C(=O)c2cc(C(=O)NC3CCCCCC3)ccc2C1O (configuration not stated)	inconclusive: 31.6 µM [inhibitor, single point]	–
CCn1cc(C(=O)OCC(=O)Nc2cc(S(=O)(=O)N(C)C)ccc2C)c(=O)c2ccc(C)nc21	inconclusive: 28.2 µM [inhibitor, single point]	–
C=CCc1c(C)nc(SCc2nc3ccccc3c(=O)[nH]2)[nH]c1=O	–	inactive: -32.1% [at 12.7 µM]
CC(=O)Nc1cc(OC(=O)c2ccco2)cc(OC(=O)c2ccco2)c1	inconclusive: 7.08 µM [inhibitor, single point]	–
CCCC(=O)N1CCN(c2ccc(NC(=O)c3ccc4c(c3)OCCO4)cc2)CC1	inconclusive: 79.4 µM [inhibitor, partial curve, poor fit]	–
CCOC(=O)N1CCN(Cc2ccc(F)cc2F)CC1	active: 11.2 µM	–
c1ccc(NCCCNc2ccccc2)cc1	inconclusive: 12.6 µM [inhibitor, partial curve, poor fit]	–
CN(C(=O)COC(=O)c1ccc(-c2ccc(O)cc2)cc1)C1CCS(=O)(=O)C1 (configuration not stated)	inconclusive: 44.7 µM [inhibitor, partial curve, poor fit]	–
Fc1cccc(NC(=S)Nc2cccnc2)c1	inconclusive: 3.55 µM [inhibitor, full curve, poor fit]	–
CCC(c1nc2ccccc2c(=O)n1CCN1CCOCC1)N1C(=O)c2ccccc2C1=O (configuration not stated)	inconclusive: 4.47 µM [inhibitor, single point]	–
Cc1ccc(N(C)C(=O)N2CCN(S(=O)(=O)c3ccc4ccccc4c3)CC2)cc1	inconclusive: 89.1 µM [inhibitor, single point]	–
COC(=O)c1ccc(CSc2c(C(C)C)cnc3c2c(=O)n(C)c(=O)n3C)cc1	inactive	–
N#CC1=C(N)Oc2c(ccc3ccccc23)C1c1ccsc1 (configuration not stated)	active: 44.7 µM	–

Structure (SMILES)	Potency	activity, negative = inhibition
CCC(C)NC(=O)COc1ccc(S(=O)(=O)N2CCOCC2)cc1 (configuration not stated)	inactive	–
O=C(CSc1nnc(NC(=O)c2cccc(Cl)c2)s1)NCC1CCCO1 (configuration not stated)	inconclusive: 22.4 µM [inhibitor, partial curve, poor fit]	–
O=c1c2ccccc2nnn1CSc1nnnn1-c1ccccc1	inconclusive: 17.8 µM [inhibitor, partial curve, poor fit]	–
O=C(NCCc1ccco1)C(=O)NCCC1CCCCN1S(=O)(=O)c1ccccc1 (configuration not stated)	–	inactive: 10.9% [at 0.501 µM]
COc1ccc(Cl)cc1S(=O)(=O)Nc1ncn[nH]1	active: 79.4 µM	–
N#Cc1ccccc1S(=O)(=O)N1CCN(C(=O)CCc2ccccc2)CC1	–	inactive: 4.25% [at 0.501 µM]
Cc1oc2c(cc(NS(=O)(=O)c3ccc(C(C)C)cc3)c3ccccc32)c1C(=O)OCc1ccccc1	inconclusive: 17.8 µM [inhibitor, partial curve, poor fit]	–
O=C(Nc1ccc(N2C(=O)C3C4C=CC(C4)C3C2=O)cc1)Nc1nncs1 (configuration not stated)	inconclusive: 50.1 µM [inhibitor, partial curve]	–
COc1ccc(NC(=O)c2cnn(-c3ccc(C)c(C)c3)c2C2CCNCC2)cc1OC	inconclusive: 17.8 µM [inhibitor, partial curve, poor fit]	–
CCN1C(=O)C(F)(CC)C(=O)c2ccccc21 (configuration not stated)	inactive	–
O=C(Nc1nc2n(n1)C(c1ccc(F)cc1)C=C(c1ccc(Cl)cc1)N2)c1ccc([N+](=O)[O-])cc1 (configuration not stated)	inactive	–
CCN(CC)CCN(C(=O)c1ccc(S(=O)(=O)N2CCCC2)cc1)c1nc2cc(C)cc(C)c2s1	inconclusive: 79.4 µM [inhibitor, single point]	–
O=S(=O)(c1ccccc1)N1CCN(Cc2ccccc2C(F)(F)F)CC1	active: 2.82 µM	–
Cc1nnc(N/N=C/c2ccc([N+](=O)[O-])cc2)n1N	inactive	–
CCOc1ccc(NC(=O)CN(C)C(=O)CSCc2c(C)noc2C)cc1OCC	inconclusive: 89.1 µM [inhibitor, single point]	–
COc1ccc(-c2occ(C(=O)O)c2C(=O)O)cc1	inconclusive: 17.8 µM [inhibitor, partial curve]	–
CCOc1ccc(-n2c(C)nc3cc(C(=O)NC4CCCC4)ccc32)cc1	inconclusive: 6.31 µM [inhibitor, single point]	–
O=C(CSc1n[nH]c(=O)[nH]c1=O)c1ccccc1	inconclusive: 22.4 µM [inhibitor, single point]	–
O=C(O)CC(NC(=O)C(F)(F)F)c1ccc2c(c1)OCO2 (configuration not stated)	inconclusive: 56.2 µM [inhibitor, partial curve, poor fit]	–
Cc1ccc(-n2ncc3c(NCc4ccco4)ncnc32)c(C)c1	active: 50.1 µM	–
O=C(CSc1nc2ccccc2c(=O)[nH]1)N1CCN(S(=O)(=O)c2ccccc2)CC1	–	inactive: 11.8% [at 12.7 µM]
Cc1cccc(NC(=O)/C(C#N)=C/c2ccco2)c1	inconclusive: 20 µM [inhibitor, partial curve, poor fit]	–
CC(C)(CCC(=S)N1CCOCC1)C1CCCCC1	active: 8.91 µM	–

Structure (SMILES)	Potency	activity, negative = inhibition
CC(C)c1ccc(NC(=O)C2CSC3(C)CCC(=O)N23)cc1 (configuration not stated)	inconclusive: 15.8 µM [inhibitor, partial curve, poor fit]	–
O=C(Nc1cccc(Br)c1)N1CCN2CCCCC2C1 (configuration not stated)	inconclusive: 8.91 µM [inhibitor, single point]	–
CC(=O)c1cccc(NS(=O)(=O)c2ccc3[nH]c4c(c3c2)CCCCC4)c1	active: 15.8 µM	–
Cc1cccc(-c2nc(CN3CCCC(C(=O)NC4CCCC4)C3)c(C)o2)c1 (configuration not stated)	inconclusive: 63.1 µM [inhibitor, single point]	–
COc1cccc(NC(=O)CN(C)C(=O)c2cc3c(s2)CCCC3)c1	inconclusive: 22.4 µM [inhibitor, single point]	–
NC(=S)NNc1ccnc2cc(Cl)ccc12	active: 1 µM	–
CN(C(=O)c1cc2c(s1)-c1ccccc1S(=O)(=O)C2)c1ccccc1	–	inconclusive: -78.5% [inhibitor]
COc1ccc2c(CC(=O)OCC(=O)NC(=O)c3cccn3C)coc2c1	inconclusive: 35.5 µM [inhibitor, partial curve]	–
COc1ccc(N(C(C)C(=O)N/N=C/c2ccc(OC(C)C)cc2)S(C)(=O)=O)cc1 (configuration not stated)	inconclusive: 5.62 µM [inhibitor, single point]	–
N#Cc1ccc(C(=O)Nc2nnc(-c3ccccn3)o2)cc1	active: 50.1 µM	–
N#CCc1c(C#N)c(N)nc(N2CCCC(O)C2)c1C#N (configuration not stated)	inconclusive: 2.24 µM [inhibitor, full curve, poor fit]	–
Cc1nc(N=Nc2ccc(O)cc2)n[nH]1	inactive	–
COCCN(C(=O)CSc1nnc(C)n1Cc1ccccc1)c1c(N)n(Cc2ccccc2)c(=O)[nH]c1=O	inconclusive: 31.6 µM [inhibitor, partial curve, poor fit]	–
CNC[C@@H](Cc1ccccc1)NC[C@@H](CC1CCCCC1)NCCCc1ccccc1	inconclusive: 79.4 µM [inhibitor, single point]	–
CCc1cccc(NC(=O)CSc2nnc(Cc3ccc(OC)cc3)c(=O)[nH]2)c1	active: 50.1 µM	–
COc1ccc(-c2c(C)nn3c(C(F)(F)F)cc(-c4ccc(C)cc4)nc23)cc1	inconclusive: 1.58 µM [inhibitor, full curve, poor fit]	–
CCOc1ccccc1C1NC(=O)NC(C)=C1C(=O)OCc1ccccc1 (configuration not stated)	inactive	–
Cc1ccc(CN(C)C(=O)C2CCN(C(=O)Nc3ccccc3)CC2)o1	inconclusive: 79.4 µM [inhibitor, single point]	–
Fc1ccc(-c2nc3ccncc3[nH]2)cc1	inconclusive: 28.2 µM [inhibitor, single point]	–
COc1cccc(-c2cc(C(=O)N3CCN(C(=O)c4ccco4)CC3)on2)c1	inactive	–
COc1ccccc1NC(=O)C1=C(C)NC(SCC(=O)Nc2ccc(C(=O)O)cc2)=C(C#N)C1c1cccs1 (configuration not stated)	inconclusive: 6.31 µM [inhibitor, single point]	–
